Results published in ChEMBL document CHEMBL1123676, “Synthetic and enzyme inhibition studies of pepstatin analogues containing hydroxyethylene and ketomethylene dipeptide isosteres” (J Med Chem, 1987).

What was measured:
[1] = substrate: COC(=O)CNC(=O)[C@H](Cc1ccccc1)NC(=O)[C@H](Cc1c[nH]cn1)NC(=O)OCc1ccccc1; assay: The kinetic constant (Km)of porcine pepsin substrate Z-His-Phe-Gly-oMe was determined
[2] = substrate: COC(=O)C(CC(C)C)NC(=O)[C@H](Cc1ccccc1)NC(=O)[C@H](Cc1c[nH]cn1)NC(=O)OCc1ccccc1; assay: The kinetic constant (Km)of porcine pepsin substrate Z-His-Phe-Leu-oMe was determined
[3] = substrate: COC(=O)C(C)NC(=O)[C@H](Cc1ccccc1)NC(=O)[C@H](Cc1c[nH]cn1)NC(=O)OCc1ccccc1; assay: The kinetic constant (Km)of porcine pepsin substrate Z-His-Phe-Ala-oMe was determined
[4] = substrate: COC(=O)C(Cc1ccccc1)NC(=O)[C@H](Cc1ccccc1)NC(=O)[C@H](Cc1c[nH]cn1)NC(=O)OCc1ccccc1; assay: The kinetic constant (Km)of porcine pepsin substrate Z-His-Phe-Phe-oMe was determined

B1: Pepsin A (Sus scrofa), P00791 (protein)
chain: MKWLLLLSLVVLSECLVKVPLVRKKSLRQNLIKNGKLKDFLKTHKHNPASKYFPEAAALIGDEPLENYLDTEYFGTIGIGTPAQDFTVIFDTGSSNLWVPSVYCSSLACSDHNQFNPDDSSTFEATSQELSITYGTGSMTGILGYDTVQVGGISDTNQIFGLSETEPGSFLYYAPFDGILGLAYPSISASGATPVFDNLWDQGLVSQDLFSVYLSSNDDSGSVVLLGGIDSSYYTGSLNWVPVSVEGYWQITLDSITMDGETIACSGGCQAIVDTGTSLLTGPTSAIANIQSDIGASENSDGEMVISCSSIDSLPDIVFTINGVQYPLSPSAYILQDDDSCTSGFEGMDVPTSSGELWILGDVFIRQYYTVFDRANNKVGLAPVA
Km [1]: 1600 µM | Km [2]: 500 µM | Km [3]: 1800 µM | Km [4]: 330 µM
